Consider 4 substances from paper PMC10581897.

Amino acid sequences for entries named in this document (tags omitted).
UniProt Q13546: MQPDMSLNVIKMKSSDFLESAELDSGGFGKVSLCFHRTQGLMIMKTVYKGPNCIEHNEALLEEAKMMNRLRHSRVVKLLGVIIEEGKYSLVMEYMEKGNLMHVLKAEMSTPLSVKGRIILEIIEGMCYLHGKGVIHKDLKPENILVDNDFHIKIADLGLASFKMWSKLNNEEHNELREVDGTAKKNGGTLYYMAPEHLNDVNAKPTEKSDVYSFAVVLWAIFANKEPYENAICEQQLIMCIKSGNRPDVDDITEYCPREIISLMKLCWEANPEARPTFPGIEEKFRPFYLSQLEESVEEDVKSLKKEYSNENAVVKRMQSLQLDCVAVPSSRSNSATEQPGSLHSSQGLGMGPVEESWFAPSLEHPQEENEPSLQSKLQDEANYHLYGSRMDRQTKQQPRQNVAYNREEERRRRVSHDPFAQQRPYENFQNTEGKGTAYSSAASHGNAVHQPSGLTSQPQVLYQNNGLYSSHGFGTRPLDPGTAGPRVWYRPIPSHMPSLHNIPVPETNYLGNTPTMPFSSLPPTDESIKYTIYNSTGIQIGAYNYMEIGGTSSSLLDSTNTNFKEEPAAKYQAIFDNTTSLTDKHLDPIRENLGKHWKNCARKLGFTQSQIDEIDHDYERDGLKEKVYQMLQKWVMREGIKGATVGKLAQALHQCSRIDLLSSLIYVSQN
UniProt P35222: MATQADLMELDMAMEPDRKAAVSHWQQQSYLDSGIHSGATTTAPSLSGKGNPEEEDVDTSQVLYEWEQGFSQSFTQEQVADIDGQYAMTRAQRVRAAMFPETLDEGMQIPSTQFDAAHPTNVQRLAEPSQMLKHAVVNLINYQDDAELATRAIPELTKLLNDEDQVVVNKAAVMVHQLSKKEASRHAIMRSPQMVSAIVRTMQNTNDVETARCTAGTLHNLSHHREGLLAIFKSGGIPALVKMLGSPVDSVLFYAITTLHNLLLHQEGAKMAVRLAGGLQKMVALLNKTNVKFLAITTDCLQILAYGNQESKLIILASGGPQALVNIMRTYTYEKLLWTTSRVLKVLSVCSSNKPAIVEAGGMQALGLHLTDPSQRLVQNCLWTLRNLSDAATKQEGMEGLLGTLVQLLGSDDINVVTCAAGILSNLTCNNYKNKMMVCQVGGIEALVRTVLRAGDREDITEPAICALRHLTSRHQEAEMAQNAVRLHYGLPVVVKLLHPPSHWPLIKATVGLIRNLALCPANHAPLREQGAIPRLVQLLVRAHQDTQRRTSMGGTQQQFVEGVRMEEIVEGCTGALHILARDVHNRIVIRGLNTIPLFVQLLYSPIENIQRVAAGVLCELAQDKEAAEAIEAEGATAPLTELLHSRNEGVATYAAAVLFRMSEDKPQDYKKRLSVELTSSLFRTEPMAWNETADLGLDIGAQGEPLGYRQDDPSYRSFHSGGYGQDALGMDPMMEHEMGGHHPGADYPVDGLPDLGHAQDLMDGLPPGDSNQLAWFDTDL
UniProt Q13489: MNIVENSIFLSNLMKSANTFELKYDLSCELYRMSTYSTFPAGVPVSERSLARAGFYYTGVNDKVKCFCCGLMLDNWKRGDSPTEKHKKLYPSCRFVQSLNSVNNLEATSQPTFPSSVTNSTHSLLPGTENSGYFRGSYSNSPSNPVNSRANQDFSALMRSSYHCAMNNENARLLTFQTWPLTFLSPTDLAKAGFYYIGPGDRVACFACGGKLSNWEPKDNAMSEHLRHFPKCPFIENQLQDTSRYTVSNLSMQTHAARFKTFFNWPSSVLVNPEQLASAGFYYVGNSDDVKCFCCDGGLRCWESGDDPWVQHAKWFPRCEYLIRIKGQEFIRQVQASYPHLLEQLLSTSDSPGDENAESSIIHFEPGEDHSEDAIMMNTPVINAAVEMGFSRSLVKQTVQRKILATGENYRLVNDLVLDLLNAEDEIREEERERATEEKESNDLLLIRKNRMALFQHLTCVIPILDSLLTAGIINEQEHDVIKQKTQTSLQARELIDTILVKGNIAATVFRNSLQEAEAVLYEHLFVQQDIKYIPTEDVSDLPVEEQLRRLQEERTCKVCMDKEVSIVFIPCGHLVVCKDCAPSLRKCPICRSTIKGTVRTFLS

Results are given in words; binding and its absence hold for the method and conditions named. For some assays here: In cells and extracts the contact can be indirect. Some entries that bind do so weakly or less than the wild type.

One assay concerns the target HIS-tagged RIP1 (UniProt Q13546). Briefly: pull-down; 200 ng GST-tagged β-catenin incubated with 200 ng HIS-tagged RIP1 in buffer A (50 mM Tris-HCl pH 7.5, 100 mM NaCl, 10% glycerol) with 0.1% Triton X-100, 1.5 h at 4 °C; captured on Ni-NTA agarose; IB with anti-GST and anti-HIS; both purified.
The target in assay [1] is β-catenin, endogenous (human (endogenous in HCT116 and DLD-1)) (UniProt P35222). Briefly: co-IP; endogenous proteins; HCT116 and DLD-1 lysates (0.7% NP-40 lysis buffer), IP with anti-β-catenin antibody at 4 °C overnight, protein G-Sepharose, IB for the partner; cells treated with WNT3A, or transfected with Flag-Mock or Flag-RIP1, or with control siRNA or siRIP1.
A further assay addresses Flag-RIP1 (UniProt Q13546). As to the kind of experiment: co-IP; HCT116 and DLD-1 cells transiently transfected with Flag-Mock vector or Flag-RIP1, without WNT; IP with anti-Flag, IB with anti-β-catenin.
The target of assay [2] is RIP1 (receptor-interacting protein kinase 1), endogenous (human (endogenous in HCT116 and DLD-1)) (UniProt Q13546). As to the kind of experiment: co-IP; endogenous proteins; HCT116 and DLD-1 cells treated with or without WNT3A; IP with RIP1 antibody, IB for β-catenin; 0.7% NP-40 lysis buffer, protein G-Sepharose.

On to “GST-tagged β-catenin (from UniProt P35222 1-781)”, for which, in the assay with HIS-tagged RIP1, the binding result is reported as “binds”. Consider “RIP1 (receptor-interacting protein kinase 1), endogenous (from UniProt Q13546 1-671)”, for which, in assay [1], the binding result was “binds”.

Turning to “cIAP2, endogenous (from UniProt Q13489 1-604)”, the binding result in assay [1] is given as “no binding”.

In the case of “β-catenin, endogenous (from UniProt P35222 1-781)”, the binding result (with Flag-RIP1; in assay [2]) was “binds” in each case.
